Consider 79 compounds from PMC12040169 (PLOS Biology, 2025).

The structures appear in SMILES notation. The list shows a part of the results.

The assay deals with T1, C. trachomatis L2/434/Bu expressing GFP (CTL2-GFP).
T1 construct: L2/434/Bu GFP intracellular growth in HeLa cells
Details: species or system HeLa; C. trachomatis total inclusion area by high-content imaging, normalised to DMSO. Conditions: total inclusion area; 28.5 h, 10 µM; inhibitor. The method, boiled down: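 Bulk GFP and resorufin signals were read first. Wells were then fixed, stained with Hoechst and imaged to detect GFP inclusions and host nuclei. MICs followed the previously described calculation.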
Turning to `Fc1ccc(-n2c(C3CC3)n[nH]c2=S)cc1Cl` [CBK288364], the “% of control remaining” value turned out to be 79.9709.
Then `Cc1cc2c(=O)n(CC(=O)NCc3ccccn3)cnc2s1` [CBK071900], with 53.8526; and `Cc1cc(C)n(C2CCN(Cc3nc4ccccc4n3C)CC2)n1` [CBK281621], with 105.958.
The figure for `Cc1cccc(-n2ncc3c(=O)n(CC(=O)Nc4ccccc4)cnc32)c1C` [CBK287693] is 98.7339.
Then `Cc1ccc2c(c1)cc(C)c1nn(CC(=O)NC(C)C)c(=O)n12` [CBK283874], with 96.0122; and `Nc1ncc(-c2cccc(O)c2)nc1N1CCC(C(=O)O)CC1` [CBK063405], with 124.029.
Turning to `CCN(CC)c1c(C)nc2ccc(C(=O)NCCN3CCNC3=O)cn12` [CBK145977], the “% of control remaining” value turned out to be 56.3478.
Then `CCN(CC)C(=O)C1CCCN(C2CCN(C(=O)c3c4ccccc4cc4ccccc34)CC2)C1` (stereo not shown) [CBK066966], with 92.6685; and `Cc1ccc(C(C)NC(=O)C2CCCN(S(C)(=O)=O)C2)c(C)c1` (stereo not shown) [CBK304349], with 70.3559.
For `N#Cc1nc(-c2ccccc2F)oc1NCCCN1CCOCC1` [CBK265881], the “% of control remaining” value turned out to be 95.0742.
Regarding `O=S(=O)(c1ccccc1)c1nc(-c2ccco2)oc1NCCCn1ccnc1` [CBK267670], the “% of control remaining” value came to 102.228.
As for `CC(C)(C)OC(=O)N1CCN(c2ccnc(N)n2)CC1` [CBK003529], the “% of control remaining” value was 102.61.
`COc1ccc(-c2noc(CSc3nnc(-c4c[nH]c5ccccc45)n3C)n2)cc1OC` [CBK268644]: the “% of control remaining” value was 120.843.
Turning to `O=C(CN1C2CCC1CC(O)(c1ccco1)C2)Nc1ccccc1F` (stereo not shown) [CBK284109], the “% of control remaining” value is reported as 79.4765.
The figure for `O=C(c1cccc(O)c1)N1CCN(Cc2cn3ccsc3n2)CC1` [CBK305275] is 62.987; for `COc1ccc2[nH]cc(CC(=O)Nc3cc(C)nc4ccccc34)c2c1` [CBK122732] it is 86.8493; for `Cc1[nH]nc2c1C(c1ccc(Cl)cc1)N(CCc1c[nH]c3ccccc13)C2=O` (stereo not shown) [CBK287919] it is 104.713.
The figure for `COc1cc(CNCc2cccnc2)ccc1OCc1cccs1` [CBK270082C] is 80.8003; for `CSc1nsc(SCC(=O)Nc2ccccc2C#N)n1` [CBK269826] it is 86.8303; for `Cc1c(-c2ccccc2)n[nH]c1C(=O)NCCCc1ccccn1` [CBK282445] it is 116.48.
Then `Cc1ccc(N2C(=O)c3ccc(S(=O)(=O)c4cccc(C(=O)O)c4)cc3C2=O)c(C)c1` [CBK262783], with 105.778; and `O=C(Nc1ccccc1Cl)C1CCCN1S(=O)(=O)c1ccc(F)cc1` (stereo not shown) [CBK110161], with 107.694; and `N#C/C(=C/c1ccc(Sc2nc3ccccc3[nH]2)o1)c1ccc(C(=O)O)cc1` [CBK269141], with 79.3812.
`O=C1NCC2(CCN(Cc3ccccc3)CC2)Oc2ccccc21` [CBK285323]: the “% of control remaining” value stood at 76.0938.
The figure for `Cc1cccc(OCCn2cncc2-c2cnn(C)c2)c1C` [CBK281497] is 81.7459; for `CCOC(=O)c1cnn2c(O)cc(CN3CCCc4ccccc43)nc12` [CBK305694] it is 123.537.
Then `O=c1c([N+](=O)[O-])c[nH]c2nc(-c3ccncc3)nn12` [CBK288531N], with 88.3565; and `O=C(O)c1cccc(S(=O)(=O)N(CCO)CCO)c1` [CBK263221], with 95.8625.
`Cc1cc(C(=O)N2CCN(Cc3ccc(F)cc3Cl)CC2)no1` [CBK268126]: the “% of control remaining” value is 111.553.
With `CC1CCCCC1NC(=O)c1ncoc1-c1cccs1` (stereo not shown) [CBK283973], the “% of control remaining” value was determined as 75.3441.
Take `Cn1c(=O)c2[nH]c(N3CCCNCC3)nc2n(C)c1=O` [CBK270030]: the “% of control remaining” value is listed as 103.645.
Then `CC1CCN(S(=O)(=O)c2ccc(C(=O)NC(C(=O)O)C(C)O)cc2)CC1` (stereo not shown) [CBK297151], with 79.4292.
Consider `CC(NC(=O)Cc1cccc(F)c1)c1nc2cccnc2n1C(C)C` (stereo not shown) [CBK283831], for which the “% of control remaining” value turned out to be 97.46.
Then `CC(NC(=O)OC(C)(C)C)c1nnc(SCC(=O)N(C)C)o1` (stereo not shown) [CBK269932], with 106.66.
The figure for `O=c1cc(N2CCN(CC3CCOC3)CC2)c(-c2ccccc2)n[nH]1` (stereo not shown) [CBK306957] is 53.316; for `O=C(O)/C=C/c1cccc(-c2cn3ccnc3c(N3CCN(c4ccncc4)CC3)n2)c1` [CBK066326] it is 113.003.
The figure for `O=[N+]([O-])c1ccc2c(ccn2C2CC(O)C(CO)O2)c1` (stereo not shown) [CBK201163] is 104.217; for `COC(=O)COc1nccnc1-c1ccc(SC)cc1` [CBK106806] it is 85.633.
On to `Cc1cc(N2CCN(C(=O)Cc3cccs3)CC2)nc(C(C)C)n1` [CBK305562], for which the “% of control remaining” value came out at 65.4522.
Regarding `CC(C)[C@H]1CN(Cc2ccco2)CCN1C(=O)N1CCCCC1` [CBK284272], the “% of control remaining” value was determined as 71.7124.
Then `COc1nccnc1NS(=O)(=O)c1ccc(Nc2c([N+](=O)[O-])cc([N+](=O)[O-])c3nonc23)cc1` [CBK261441], with 20.298; and `CC(C)C(=O)Nc1ccc2c(-c3ccccc3)ccnc2n1` [CBK073671], with 110.391; and `Nc1ncc(-c2cccc3ncccc23)nc1N1CCC[C@@H]1CO` [CBK063441], with 120.345.
For the compound `O=C(O)C1CCCCN1S(=O)(=O)c1ccc(Br)cc1` (stereo not shown) [CBK101789], the “% of control remaining” value worked out at 78.2873.
As for `O=C(Nc1cccc(Cl)c1Cl)c1cccs1` [CBK057672], the “% of control remaining” value came out at 44.5393.
For `Cc1cc(F)c(S(N)(=O)=O)cc1NC(=O)c1cccc(Br)c1` [CBK051488], the “% of control remaining” value turned out to be 76.0738.
Then `CC(C)(C)OC(=O)N1CCC(C2OCc3cc(-c4ccc(C(=O)N5CCOCC5)o4)ccc3O2)CC1` (stereo not shown) [CBK173615], with 81.369; and `Cc1nnc(N/N=C\c2c(Cl)cccc2Cl)[nH]c1=O` [CBK027921], with 81.6417.
Then `C#CCN1CC[C@]2(c3ccc(OC)c(OC)c3)CC[C@@H](NC(=O)Nc3ccc(F)c(F)c3)C[C@H]12` [CBK056657], with 51.1516; and `COc1ccc2[nH]cc(CCNC(=O)c3cc(-c4cccc(NC(C)=O)c4)cnc3N(C)S(C)(=O)=O)c2c1` [CBK076599], with 109.766; and `O=C(CSc1oc(-c2ccco2)nc1S(=O)(=O)c1ccccc1)c1ccccc1` [CBK268424], with 111.592.
For `CC(=O)Nc1ccc(CN(C)c2c(C)nc3ccc(C(=O)N(C)CCN(C)C)cn23)cc1` [CBK147107], the “% of control remaining” value worked out at 105.572.
Regarding `COCc1nnc(Sc2nccnc2N2CCCC2)s1` [CBK093736], the “% of control remaining” value is 109.169.
As to `CC(NC(=O)N(C)Cc1ccc2ccccc2n1)c1nncn1C(C)C` (stereo not shown) [CBK307197], the “% of control remaining” value turned out to be 39.0703.
Regarding `O=C(NCc1ccccc1)c1cccc(NC(=O)c2cc(-c3ccccn3)nc3ccc(Cl)cc23)c1` [CBK267768], the “% of control remaining” value came out at 124.386.
The figure for `COCCCNC(=O)c1cnn2c(C)c(Cc3cccc(F)c3)c(C)nc12` [CBK162126] is 52.1694.
The figure for `CC(CCc1ccccc1)NC(=O)C(C)Sc1nnc(-c2cccs2)n1C1CC1` (stereo not shown) [CBK297131] is 92.622; for `CC(=O)Nc1ccc2nc(Nc3nc4c(F)cc(F)cc4s3)sc2c1` [CBK287489] it is 105.587; for `COc1ccc(CCn2cncc2-c2cnn(C)c2)cc1C` [CBK281457] it is 96.6301.
In the case of `CNC(=O)c1sc2ccccc2c1C1CCN(Cc2ccc(OC)c(OC(C)C)c2)C1` (stereo not shown) [CBK285928], the “% of control remaining” value is given as 95.0941.
As to `CC(=O)NCCC(=O)Nc1cc(C)ccc1C` [CBK306115], the “% of control remaining” value amounted to 28.8448.
Then `COc1ccc2c(Cl)c(C(=O)NCCc3ccc(S(N)(=O)=O)cc3)sc2c1` [CBK268120], with 107.62; and `CCc1nc(CN2CCCC(NC(C(N)=O)c3ccccc3)C2)no1` (stereo not shown) [CBK305348], with 40.7274; and `COCCNc1nc(-c2ccc3c(c2)OCO3)ccc1C(=O)N(C)CCN(C)C` [CBK105915], with 99.1351.
Turning to `CCN(CC)CC(O)Cn1c(-c2cccc([N+](=O)[O-])c2)nc(=S)c2c1CCCC2` (stereo not shown) [CBK265700], the “% of control remaining” value amounted to 100.192.
The figure for `O=C(NCCCN1CCCCC1)C1CC(=O)N(Cc2ccco2)C1` (stereo not shown) [CBK305145] is 87.2859.
Then `O=C(Cc1ccc(Cl)c(Cl)c1)N1CCC2(CCN(C(=O)c3cc(F)c(F)cc3F)C2)C1` (stereo not shown) [CBK131386], with 91.2532; and `O=C(NCCCNc1ccc([N+](=O)[O-])cc1)c1cccs1` [CBK066825], with 86.5763; and `O=C(O)c1ccc(N2CC(C(=O)Nc3ccc(F)cc3)CC2=O)cc1` (stereo not shown) [CBK286794], with 110.888.
`Nc1cccc(-c2nccnc2N2CCCC2CO)c1` (stereo not shown) [CBK036786]: the “% of control remaining” value came out at 90.3073.
Then `COc1ccc(S(=O)(=O)Nc2nccnc2-c2cccs2)cc1OC` [CBK050774], with 88.2681; and `Oc1cc(C(F)(F)F)nc2[nH]nc(-c3cccs3)c12` [CBK008498], with 58.7199.
In the case of `CC(C)C(=O)Nc1nc2c(nc(OCc3ccccc3)n2C2CC(O)C(CO)O2)c(=O)[nH]1` (stereo not shown) [CBK201264], the “% of control remaining” value stood at 95.5149.
Then `Cc1nc(NC(=O)Cc2c(C)nn(CC(C)C)c2C)sc1-c1n[nH]c(=S)n1C` [CBK296691], with 85.3519.
Then `Cc1cccnc1CN(C)C(=O)c1cccc(NC(=O)C2CCCC2)c1` [CBK306913], with 87.4193; and `CC(NS(=O)(=O)c1ccc(CCC(=O)O)cc1)c1ccccc1` (stereo not shown) [CBK267058], with 125.202; and `CSc1ccccc1Nc1ncnc2n[nH]cc12` [CBK288099], with 96.8009.
For the compound `CC(=O)c1ccccc1-c1ccc(C(=O)NCCc2ccccn2)c(NCC2CC2)n1` [CBK076580], the “% of control remaining” value came to 72.0855.
The figure for `CCn1c(SCC(=O)Nc2ccc(C(=O)O)cc2)nnc1-c1ccccc1C` [CBK265927] is 70.4377.
